Source: US20050215634A1 (priority 2003, published 2005)

What was measured:
[1] = tested on: V428 human vaginal epithelial cells

For `CCCCCCCCCCCC(=O)OCC(O)CO` (centres unmarked) [GML, glycerol monolaurate], the “RNA synthesis by epithelial cells” value [1] was “complete inhibition of RNA synthesis” and the “Toxicity to HVECs” value (HVECs) was “Non-Toxic”.
